# In the supplement of paper PMC8728848:
# The list shows a part of the results.
# B1: Pwp4 (Candida glabrata) (protein)
# chain: MGSSHHHHHHSSGLVPRGSHMASVGNPITVSNVCSFPKNWHRTAGFRALTARLGIGIQSDSYKELLNYPGTFQLTTQQSSTTKPNFQISGLVGNIYGLTIVPSYLLVELTGYFVPPVSGEYTFSLEGSDDAAIIFIANPSTFKCGHVEDWPTAYDNDVTVTESIHATRTIYMIEGVAYPIRIAYYNGLSLGKLQASFTDPEGVKRVDWNGYIWRYDSCDTCSYV
# How the values were obtained:
# Assay in all cases: glycan array binding signal (z-score within array); higher = stronger binding
# Conditions in all cases: glycan notation: IUPAC condensed, linker removed
# [1] = target: Neu5Ac(a2-3)Gal(b1-4)GlcNAc(b1-6)GalNAc
# In short: (§1)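 Arrays were curated from the Consortium for Functional Glycomics database, 3228 in total, and kept only where the protein sequence was available. Binding is expressed as a within-array Z-score. This score was averaged across arrays of the same protein sequence at different concentrations or buffers and across linkers, and negative values can be read as non-binding.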
# [2] = target: Neu5Ac(a2-3)Gal(b1-4)GlcNAc(b1-6)[Gal(b1-3)]GalNAc
# In short: as §1
# [3] = target: Neu5Ac(a2-3)Gal(b1-4)GlcNAc(b1-6)[Neu5Ac(a2-3)Gal(b1-3)]GalNAc
# In short: as §1
# [4] = target: Neu5Ac(a2-3)Gal(b1-4)GlcNAc6S
# In short: as §1
# [5] = target: Neu5Ac(a2-3)Gal(b1-4)[Fuc(a1-3)]GlcNAc
# In short: as §1
# [6] = target: Neu5Ac(a2-3)Gal(b1-4)[Fuc(a1-3)]GlcNAc(b1-2)Man
# In short: as §1
# [7] = target: Neu5Ac(a2-3)Gal(b1-4)[Fuc(a1-3)]GlcNAc(b1-3)Gal
# In short: as §1
# [8] = target: Neu5Ac(a2-3)Gal(b1-4)[Fuc(a1-3)]GlcNAc(b1-3)Gal(b1-4)GlcNAc
# In short: as §1
# [9] = target: Neu5Ac(a2-3)Gal(b1-4)[Fuc(a1-3)]GlcNAc(b1-3)Gal(b1-4)[Fuc(a1-3)]GlcNAc(b1-3)Gal(b1-4)[Fuc(a1-3)]GlcNAc
# In short: as §1
# [10] = target: Neu5Ac(a2-3)Gal(b1-4)[Fuc(a1-3)]GlcNAc(b1-3)GalNAc
# In short: as §1
# [11] = target: Neu5Ac(a2-3)Gal(b1-4)[Fuc(a1-3)]GlcNAc(b1-6)[Gal(b1-3)]GalNAc
# In short: as §1
# [12] = target: Neu5Ac(a2-3)Gal(b1-4)[Fuc(a1-3)]GlcNAc(b1-6)[Neu5Ac(a2-3)Gal(b1-3)]GalNAc
# In short: as §1
# [13] = target: Neu5Ac(a2-3)Gal(b1-4)[Fuc(a1-3)]GlcNAc6S
# In short: as §1
# [14] = target: Neu5Ac(a2-3)Gal6S(b1-4)GlcNAc
# In short: as §1
# [15] = target: Neu5Ac(a2-3)Gal6S(b1-4)[Fuc(a1-3)]GlcNAc
# In short: as §1
# Neu5Ac(a2-3)GalNAc = target: Neu5Ac(a2-3)GalNAc
# In short: as §1
# [16] = target: Neu5Ac(a2-3)GalNAc(b1-4)GlcNAc
# In short: as §1
# [17] = target: Neu5Ac(a2-3)[GalNAc(b1-4)]Gal(b1-4)Glc
# In short: as §1
# [18] = target: Neu5Ac(a2-3)[GalNAc(b1-4)]Gal(b1-4)GlcNAc
# In short: as §1
# [19] = target: Neu5Ac(a2-3)[GalNAc(b1-4)]Gal(b1-4)GlcNAc(b1-3)GalNAc
# In short: as §1
# [20] = target: Neu5Ac(a2-3)[Neu5Ac(a2-6)]GalNAc
# In short: as §1
# Neu5Ac(a2-6)Gal = target: Neu5Ac(a2-6)Gal
# In short: as §1
# [21] = target: Neu5Ac(a2-6)Gal(b1-3)GlcNAc(b1-3)[Gal(b1-4)GlcNAc(b1-6)]Gal(b1-4)Glc
# In short: as §1
# Neu5Ac(a2-6)Gal(b1-4)Glc = target: Neu5Ac(a2-6)Gal(b1-4)Glc
# In short: as §1
# [22] = target: Neu5Ac(a2-6)Gal(b1-4)GlcNAc
# In short: as §1
# [23] = target: Neu5Ac(a2-6)Gal(b1-4)GlcNAc(b1-2)Man
# In short: as §1
# [24] = target: Neu5Ac(a2-6)Gal(b1-4)GlcNAc(b1-2)Man(a1-3)Man(b1-4)GlcNAc(b1-4)GlcNAc
# In short: as §1
# [25] = target: Neu5Ac(a2-6)Gal(b1-4)GlcNAc(b1-2)Man(a1-3)[Gal(b1-4)GlcNAc(b1-2)Man(a1-6)]Man(b1-4)GlcNAc(b1-4)GlcNAc
# In short: as §1
# [26] = target: Neu5Ac(a2-6)Gal(b1-4)GlcNAc(b1-2)Man(a1-3)[GlcNAc(b1-4)][Neu5Ac(a2-6)Gal(b1-4)GlcNAc(b1-2)Man(a1-6)]Man(b1-4)GlcNAc(b1-4)GlcNAc
# In short: as §1
# [27] = target: Neu5Ac(a2-6)Gal(b1-4)GlcNAc(b1-2)Man(a1-3)[Man(a1-6)]Man(b1-4)GlcNAc(b1-4)GlcNAc
# In short: as §1
# [28] = target: Neu5Ac(a2-6)Gal(b1-4)GlcNAc(b1-2)Man(a1-3)[Neu5Ac(a2-3)Gal(b1-4)GlcNAc(b1-2)Man(a1-6)]Man(b1-4)GlcNAc(b1-4)GlcNAc
# In short: as §1
# [29] = target: Neu5Ac(a2-6)Gal(b1-4)GlcNAc(b1-2)Man(a1-3)[Neu5Ac(a2-6)Gal(b1-4)GlcNAc(b1-2)Man(a1-6)]Man(b1-4)GlcNAc(b1-4)GlcNAc
# In short: as §1
# [30] = target: Neu5Ac(a2-6)Gal(b1-4)GlcNAc(b1-2)Man(a1-3)[Neu5Ac(a2-6)Gal(b1-4)GlcNAc(b1-2)Man(a1-6)]Man(b1-4)GlcNAc(b1-4)[Fuc(a1-6)]GlcNAc
# In short: as §1
# [31] = target: Neu5Ac(a2-6)Gal(b1-4)GlcNAc(b1-2)Man(a1-6)Man(b1-4)GlcNAc(b1-4)GlcNAc
# In short: as §1
# [32] = target: Neu5Ac(a2-6)Gal(b1-4)GlcNAc(b1-2)Man(a1-6)[Gal(b1-4)GlcNAc(b1-2)Man(a1-3)]Man(b1-4)GlcNAc(b1-4)GlcNAc
# In short: as §1
# [33] = target: Neu5Ac(a2-6)Gal(b1-4)GlcNAc(b1-2)Man(a1-6)[GlcNAc(b1-2)Man(a1-3)]Man(b1-4)GlcNAc(b1-4)GlcNAc
# In short: as §1
# [34] = target: Neu5Ac(a2-6)Gal(b1-4)GlcNAc(b1-2)Man(a1-6)[Man(a1-3)]Man(b1-4)GlcNAc(b1-4)GlcNAc
# In short: as §1
# [35] = target: Neu5Ac(a2-6)Gal(b1-4)GlcNAc(b1-2)[Neu5Ac(a2-6)Gal(b1-4)GlcNAc(b1-4)]Man(a1-3)[GlcNAc(b1-4)][Neu5Ac(a2-6)Gal(b1-4)GlcNAc(b1-2)[Neu5Ac(a2-6)Gal(b1-4)GlcNAc(b1-6)]Man(a1-6)]Man(b1-4)GlcNAc(b1-4)GlcNAc
# In short: as §1
# [36] = target: Neu5Ac(a2-6)Gal(b1-4)GlcNAc(b1-2)[Neu5Ac(a2-6)Gal(b1-4)GlcNAc(b1-4)]Man(a1-3)[GlcNAc(b1-4)][Neu5Ac(a2-6)Gal(b1-4)GlcNAc(b1-4)Man(a1-6)]Man(b1-4)GlcNAc(b1-4)GlcNAc
# In short: as §1
# [37] = target: Neu5Ac(a2-6)Gal(b1-4)GlcNAc(b1-2)[Neu5Ac(a2-6)Gal(b1-4)GlcNAc(b1-6)]Man(a1-6)[Neu5Ac(a2-6)Gal(b1-4)GlcNAc(b1-2)Man(a1-3)][GlcNAc(b1-4)]Man(b1-4)GlcNAc(b1-4)GlcNAc
# In short: as §1
# [38] = target: Neu5Ac(a2-6)Gal(b1-4)GlcNAc(b1-3)Gal(b1-3)GlcNAc
# In short: as §1
# [39] = target: Neu5Ac(a2-6)Gal(b1-4)GlcNAc(b1-3)Gal(b1-4)GlcNAc
# In short: as §1
# [40] = target: Neu5Ac(a2-6)Gal(b1-4)GlcNAc(b1-3)Gal(b1-4)GlcNAc(b1-2)Man(a1-3)[Neu5Ac(a2-6)Gal(b1-4)GlcNAc(b1-3)Gal(b1-4)GlcNAc(b1-2)Man(a1-6)]GalNAc
# In short: as §1
# [41] = target: Neu5Ac(a2-6)Gal(b1-4)GlcNAc(b1-3)Gal(b1-4)GlcNAc(b1-3)Gal(b1-4)GlcNAc
# In short: as §1
# [42] = target: Neu5Ac(a2-6)Gal(b1-4)GlcNAc(b1-3)Gal(b1-4)GlcNAc(b1-3)Gal(b1-4)GlcNAc(b1-2)Man(a1-3)[Neu5Ac(a2-6)Gal(b1-4)GlcNAc(b1-3)Gal(b1-4)GlcNAc(b1-3)Gal(b1-4)GlcNAc(b1-2)Man(a1-6)]GalNAc
# In short: as §1
binder,measurement,setting,value
B1,glycan array binding signal (z-score),[1],0.163
same,glycan array binding signal (z-score),[2],0.013
same,glycan array binding signal (z-score),[3],-0.278
same,glycan array binding signal (z-score),[4],-0.629
same,glycan array binding signal (z-score),[5],0.138
same,glycan array binding signal (z-score),[6],0.163
same,glycan array binding signal (z-score),[7],0.061
same,glycan array binding signal (z-score),[8],-0.168
same,glycan array binding signal (z-score),[9],-0.404
same,glycan array binding signal (z-score),[10],-0.172
same,glycan array binding signal (z-score),[11],-0.316
same,glycan array binding signal (z-score),[12],0.089
same,glycan array binding signal (z-score),[13],-0.478
same,glycan array binding signal (z-score),[14],-0.614
same,glycan array binding signal (z-score),[15],-0.421
same,glycan array binding signal (z-score),Neu5Ac(a2-3)GalNAc,-0.545
same,glycan array binding signal (z-score),[16],0.429
same,glycan array binding signal (z-score),[17],-0.025
same,glycan array binding signal (z-score),[18],-0.525
same,glycan array binding signal (z-score),[19],-0.286
same,glycan array binding signal (z-score),[20],1
same,glycan array binding signal (z-score),Neu5Ac(a2-6)Gal,0.575
same,glycan array binding signal (z-score),[21],-0.424
same,glycan array binding signal (z-score),Neu5Ac(a2-6)Gal(b1-4)Glc,-0.616
same,glycan array binding signal (z-score),[22],0.065
same,glycan array binding signal (z-score),[23],-0.742
same,glycan array binding signal (z-score),[24],-0.419
same,glycan array binding signal (z-score),[25],1.01
same,glycan array binding signal (z-score),[26],0.257
same,glycan array binding signal (z-score),[27],0.089
same,glycan array binding signal (z-score),[28],-0.29
same,glycan array binding signal (z-score),[29],-0.332
same,glycan array binding signal (z-score),[30],-0.055
same,glycan array binding signal (z-score),[31],0.851
same,glycan array binding signal (z-score),[32],-0.186
same,glycan array binding signal (z-score),[33],-0.493
same,glycan array binding signal (z-score),[34],0.46
same,glycan array binding signal (z-score),[35],0.648
same,glycan array binding signal (z-score),[36],-0.777
same,glycan array binding signal (z-score),[37],-0.104
same,glycan array binding signal (z-score),[38],-0.33
same,glycan array binding signal (z-score),[39],-0.127
same,glycan array binding signal (z-score),[40],0.057
same,glycan array binding signal (z-score),[41],0.151
same,glycan array binding signal (z-score),[42],0.344
